Consider 23 compounds from ChEMBL document CHEMBL4888484, “Replenishing the malaria drug discovery pipeline: Screening and hit evaluation of the MMV Hit Generation Library 1 (HGL1) against asexual blood stage Plasmodium falciparum ,using a nano luciferase reporter read-out” (2022).

Among all 150,000 compounds or so, about 540 (0.36%) showed an effect of 50% or more. Some of the results follow.

The assay concerns Plasmodium falciparum. The assay is described as follows: Primary screen in NF54 nanoGlo assay, in single point, at 2uM, 72h; a lower Z score goes with more inhibition. It is filed as functional, Erythrocyte. The following applies: timepoint 72 hour.
Take `CCC(NCC(C)c1ccc(F)cc1)C(=O)N1CCOCC1` (stereo unspecified): the % Inhibition (as a rule, the change of the read-out against control, counted positive when it falls) is on record as -13% and the Z score is given as 1.81.

As to `Cc1ccc(CNC(=O)CN2CCN(c3nccn3C)CC2)cc1`, the “% Inhibition” value is listed as -10% and the Z score came to 1.69.

`CCN(C(=O)C1CC1c1cnn(C)c1)c1ccccc1` (stereo unspecified): the “% Inhibition” value is -46% and the Z score is 5.44.

As for `O=S(=O)(N[C@@H](Cn1cnc2ccccc21)c1ccc(F)cc1)c1cc(F)c(F)cc1F`, the “% Inhibition” value amounted to 37% and the Z score is listed as -4.73.

For the compound `O=C(NC1CC1)[C@@H]1CCCN1c1ccc2ccccc2n1`, the “% Inhibition” value is -11% and the Z score was found to be 1.46.

With `O=C(N[C@@]1(CO)CCOC1)c1ccc(F)c2ccncc12`, the “% Inhibition” value is 0% and the Z score is -0.09.

Regarding `CC1(C)NC(=O)N(CCN2CCCc3cccc(F)c32)C1=O`, the “% Inhibition” value was -4% and the Z score was determined as 0.5.

`O=C(NC1CCC(F)(F)CC1)c1cn[nH]c1`: the “% Inhibition” value is on record as -6% and the Z score was 1.18.

On to `Cc1nccn1CCC1CCN(Cc2ccoc2)CC1`, for which the “% Inhibition” value was found to be 2% and the Z score was -0.42.

For the compound `C[C@@H](C(N)=O)N1CCC(c2nc3cc(Cl)ccc3o2)CC1`, the “% Inhibition” value is reported as -3% and the Z score worked out at 0.44.

`CC(C)(C)c1ccc(C(=O)N2CCN(C(=O)Cn3cnnn3)CC2)s1`: the “% Inhibition” value is reported as -3% and the Z score amounted to 0.58.

Turning to `Cc1ccc(NC(=O)NC(C)COCC(F)(F)F)cc1NC(=O)NC(C)COCC(F)(F)F` (stereo unspecified), the “% Inhibition” value is -7% and the Z score is on record as 1.27.

Consider `O=C(CCn1cccn1)N[C@H](c1cccc(F)c1F)C(F)(F)F`, for which the “% Inhibition” value was -2% and the Z score came out at 0.42.

Regarding `Cn1nc(C(=O)N2CCN(c3cnccn3)CC2)ccc1=O`, the “% Inhibition” value was -12% and the Z score turned out to be 2.23.

Regarding `COc1ccc2c(c1)CN(c1cc(C)nc(N)n1)CC2`, the “% Inhibition” value is recorded as -3% and the Z score is recorded as 0.27.

As to `N#Cc1ccc(C(=O)N2C[C@@H](CO)C[C@@H](CN3CCOCC3)C2)cn1`, the “% Inhibition” value worked out at 1% and the Z score is reported as -0.21.

With `CC(C)OCCCNc1ccc(-c2ccnn2C)nn1`, the “% Inhibition” value was determined as 3% and the Z score is recorded as -0.37.

As for `COc1ncccc1CN(C)C(=O)CC1CCCC1`, the “% Inhibition” value is recorded as -11% and the Z score was 1.38.

Turning to `C[C@@H](CNC(=O)c1ccc(Cl)c(-n2cnc3cccnc32)c1)c1ccccc1`, the “% Inhibition” value came out at 31% and the Z score is reported as -4.45.

With `O=C(CNC1(c2ccc(Br)cc2)CCOCC1)Nc1ccccc1C(F)(F)F`, the “% Inhibition” value is given as -13% and the Z score worked out at 1.17.

In the case of `CN1CCN(c2cccc(Cl)c2CNc2ccc3ccn(C)c(=O)c3c2)CC1`, the “% Inhibition” value is on record as 7% and the Z score is listed as -1.43.

Regarding `CCOC(=O)c1cnn2c(C(=O)N3CCC[C@H](c4nc(C)cs4)C3)ccnc12`, the “% Inhibition” value was -8% and the Z score is recorded as 1.3.

On to `COc1cc2ccc1Oc1cccc(c1)CO[C@H]1CN(C(=O)c3c(C)nc4sccn34)C[C@@H]1NC(=O)CN(C1CC1)C(=O)CC2`, for which the “% Inhibition” value is given as 11% and the Z score is given as -2.06.
